Data taken from PubChem BioAssay AID485344 (National Center for Advancing Translational Sciences (NCATS), 2010).
The campaign covered roughly 340,000 compounds. About 6,900 (2%) were called active. Rule as the data show it: active = inhibition above about 30%; inactive = below that, where a call was filed. This is a selection; strong and weak results do not stand in their true shares. The source gives no active or inactive call for entries shown without one.
Also: 0% is about no effect.

What follows are compounds tested against D(2) dopamine receptor (Homo sapiens) (UniProt P14416) (assay: HTS Assay for Allosteric Antagonists of the Human D2 Dopamine Receptor: Primary Screen for Antagonists). Conditions: HEK293 TREx D2 cells, calcium flux, dopamine EC80; at 10 µM; stronger effect = higher value.
UniProt P14416, sequence (P14416 whole entry, looked up): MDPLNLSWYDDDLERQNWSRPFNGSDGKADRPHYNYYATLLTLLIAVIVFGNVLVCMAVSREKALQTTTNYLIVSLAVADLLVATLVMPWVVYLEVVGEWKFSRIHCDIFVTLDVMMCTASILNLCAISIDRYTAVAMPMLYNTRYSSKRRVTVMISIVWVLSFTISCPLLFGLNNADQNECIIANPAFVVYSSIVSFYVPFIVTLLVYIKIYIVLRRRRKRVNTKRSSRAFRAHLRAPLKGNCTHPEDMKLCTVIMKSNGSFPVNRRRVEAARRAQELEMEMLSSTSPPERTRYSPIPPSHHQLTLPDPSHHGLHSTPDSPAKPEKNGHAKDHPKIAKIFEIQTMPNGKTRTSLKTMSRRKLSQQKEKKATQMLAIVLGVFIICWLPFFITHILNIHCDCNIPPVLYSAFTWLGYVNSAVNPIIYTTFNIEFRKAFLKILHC
Summary of the method: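 Calcium flux kinetic readout in an inducible HEK293 TREx D2 line plated overnight at 30 C. After 180 s compound exposure, an EC80 dopamine challenge follows with another 180 s kinetic read to detect antagonism.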
With `CC(C)C[C@H]1C(=O)N2CCCC2[C@]2(O)O[C@](NC(=O)[C@@H]3C=C4c5cccc6[nH]cc(c56)CC4N(C)C3)(C(C)C)C(=O)N12` (stereo not given in full) the inhibition was active: 78.1%. In the case of `CS(=O)(=O)Nc1ccc(Cc2noc(-c3ccc4[nH]cc(CCN)c4c3)n2)cc1`, the inhibition is reported as active: 40.2%. For `O=C(COc1ccccc1[N+](=O)[O-])N1CCN(CCc2ccncc2)CC1`, the inhibition was 0.49%. `COc1ccc(C)cc1NC(=O)c1cccn(Cc2ccccc2Cl)c1=O` showed an inhibition of -27.8%. With `Cc1ccc(-n2c(/C=C/c3cc(Br)cs3)nc3ccccc3c2=O)cc1C` the inhibition was -15.7%. `CC(C)[C@H]1C(=O)N2CCC[C@H]2[C@]2(O)O[C@](NC(=O)[C@@H]3C=C4c5cccc6[nH]cc(c56)C[C@H]4N(C)C3)(C(C)C)C(=O)N12` was tested, and the inhibition was active: 88.5%. Work on `CC(C)c1ccc(NC(=O)CN2C(=O)CN=C(c3ccccc3)c3ccccc32)cc1` yielded an inhibition of -6.01%. `CCOC(=O)C1CCN(Cc2ccc(Cl)nc2)CC1` was tested, and the inhibition was active: 46.7%. For `CSc1ccc(CN2CCN(c3ccccc3C)CC2)cc1`, the inhibition was active: 70.8%. `C[C@H]1CC[C@@]2(C)[C@@H](CC[C@@H]3[C@@H]2CC[C@]2(C)[C@@H](O)CC[C@@H]32)C1` was tested, and the inhibition was active: 69.1%. In the case of `NCC(O)c1ccc(O)cc1` (stereo not given), the inhibition is reported as active: 32.1%. For `O=C(Cn1cc(C(=O)c2ccccc2)c2ccccc21)Nc1ccc(Br)cc1`, the inhibition was -1.46%. `COc1ccc(-c2nc(CN3C(=O)CN=C(c4ccccc4Cl)c4cc(Cl)ccc43)c(C)o2)cc1OC` gave an inhibition of 6.53%. Work on `CCCc1ccc(OCC(=O)Nc2ccc(Cl)cc2C(=O)c2ccccc2)cc1` yielded an inhibition of 6.26%. For `C1=C(c2c[nH]c3ccccc23)CCN(Cc2ccccc2)C1`, the inhibition was active: 69.8%. In the case of `Cc1cccc(CN2C(=O)CN=C(c3ccccc3)c3cc(Cl)ccc32)c1`, the inhibition is reported as -13.5%. `CN1CCc2cccc(Cl)c2CC1` was tested, and the inhibition was active: 52.6%. With `COc1c2c(cc3c1OCO3)CCN(C)C2` the inhibition was active: 74.8%. `CCOC(=O)c1ccc(NC(=O)c2cccn(Cc3ccccc3F)c2=O)cc1` was tested, and the inhibition was 17.9%. For `CCCCCc1nc2c(c(=O)c3ccccc3n2C)c(=O)n1C1CCCCCC1`, the inhibition was active: 45.8%. `N#Cc1ccccc1NC(=O)c1cccn(Cc2ccccc2)c1=O` was tested, and the inhibition was -17%. Compound `CCC(C(=O)Nc1ccccc1F)N1C(=O)CN=C(c2ccccc2)c2ccccc21` (stereo not given) has an inhibition of 0.732%. In the case of `O=C(c1ccco1)c1cn(Cc2ccc(Cl)cc2)c2ccccc12`, the inhibition is reported as active: 30.7%. For `COc1ccc(Cl)cc1NC(=O)c1sc2nc3c(cc2c1N)N1CCC3CC1`, the inhibition was 11.7%. With `Cc1ccc(S(=O)(=O)N(C)C)cc1NC(=O)C(C)[N+]12CCN(CC1)CC2` (stereo not given) the inhibition was active: 31.7%. For `Cc1ccccc1C1=NCC(=S)Nc2ccc(Cl)cc21`, the inhibition was active: 40.7%. With `O=C(CCc1nc(C2=CCN(Cc3cccc(Cl)c3)CC2)no1)Nc1ccccc1F` the inhibition was 7%. `Cc1cccc(NC(=O)Cn2cc(C(=O)c3ccccc3)c3ccccc32)c1` was tested, and the inhibition was 20.7%. With `COc1ccc(OCC(=O)N2CCN(Cc3cc(=O)n4nc(-c5ccccc5C)sc4n3)CC2)cc1` the inhibition was 14.5%. `CC(=O)NS(=O)(=O)c1ccc(NC(=O)c2cccn(Cc3ccc(Cl)cc3)c2=O)cc1` showed an inhibition of 19.9%. `O=c1c2ccccc2nc(/C=C\c2ccc(F)cc2)n1-c1ccccc1F` was tested, and the inhibition was -2.76%. Work on `O=S1(=O)N(Cc2ccccc2)CCCN1Cc1cccc(Cl)c1` yielded an inhibition of 21.5%. With `O=C(COc1cccc(Cl)c1)N1CCN(CCc2ccncc2)CC1` the inhibition was 3.94%. With `N#Cc1cc2c(nc1SCC(=O)Nc1ccc(OC(F)(F)F)cc1)C1CCN2CC1` the inhibition was -13.9%. `O=C(COc1ccccc1Cl)N1CCN(CCc2ccncc2)CC1` gave an inhibition of 9.7%. `COc1ccccc1N1CCN(Cc2ccc(F)cc2)CC1` was tested, and the inhibition was active: 75.9%. In the case of `Cc1cccc(CS(=O)(=O)Cc2ccc(C(=O)N3CCC4(CC3)OCCO4)o2)c1`, the inhibition is reported as active: 39.8%. `Cc1cccc(-n2c(/C=C/c3cn(C)c4ccccc34)nc3ccccc3c2=O)c1` gave an inhibition of -9.56%. With `CCOC(=O)C1CCCN(c2ccc([N+](=O)[O-])c3nonc23)C1` (stereo not given) the inhibition was active: 51.7%. For `CC(C)(C)NC(=O)C1CC2CCCCC2CN1` (stereo not given), the inhibition was active: 64.2%. `Cc1ccc(-c2nc(CN3C(=O)CN=C(c4ccccc4)c4cc(Cl)ccc43)c(C)o2)cc1` was tested, and the inhibition was 2.95%. Compound `Cc1cc(NC(=O)c2cccn(Cc3cccc(Cl)c3)c2=O)no1` has an inhibition of -14.7%. In the case of `O=C(Nc1ccon1)c1cccn(Cc2ccccc2)c1=O`, the inhibition is reported as -14.8%. For `c1ccc(C2CC2)c(OCC2=NCCN2)c1`, the inhibition was active: 47%. With `CCC(CO)NC(=O)C1C=C2c3cccc4[nH]cc(c34)CC2N(C)C1` (stereo not given) the inhibition was active: 81%. With `CSc1ccc(CN2CCN(Cc3ccccc3Cl)CC2)cc1` the inhibition was active: 69.5%. `Cc1cc(-n2c(/C=C/c3ccc(Br)s3)nc3ccccc3c2=O)ccc1Br` gave an inhibition of 28.3%. `CCCCc1ccc(NC(=O)c2cccn(Cc3ccc(Cl)cc3)c2=O)cc1` gave an inhibition of 7.44%. `Cc1c(C(c2ccc(Cl)cc2Cl)c2c(O)c3ccccc3oc2=O)c(=O)n(-c2ccccc2)n1C` (stereo not given) was tested, and the inhibition was -0.0282%. In the case of `O=c1c2ccccc2nc(/C=C\c2ccccc2F)n1-c1ccc(O)cc1`, the inhibition is reported as -15.7%. Compound `Cc1ccccc1CN1C(=O)CN=C(c2ccccc2)c2cc(Cl)ccc21` has an inhibition of -18.5%. With `COc1ccc(C(=O)Nc2ccc(Cl)cc2C(=O)c2ccccc2)c(OC)c1` the inhibition was 5.22%. With `Cc1ccc(OCC(=O)N2CCN(CCc3ccncc3)CC2)cc1C` the inhibition was -26.6%. In the case of `Clc1ccccc1N1CCN(Cc2ccc3c(c2)OCO3)CC1`, the inhibition is reported as active: 60.2%. `Cc1ccc(-n2c(/C=C/c3cc(Br)cs3)nc3ccccc3c2=O)cc1` showed an inhibition of -5.32%. `OC(CNCCc1c[nH]c2ccccc12)c1ccccc1` (stereo not given) was tested, and the inhibition was active: 54%. `Cc1cccc(-n2c(/C=C/c3ccccc3O)nc3ccccc3c2=O)c1` was tested, and the inhibition was -1.13%. With `CCNCC(O)c1cccc(O)c1` (stereo not given) the inhibition was active: 32.3%. With `CCc1ccc(NC(=O)c2cccn(Cc3cccc([N+](=O)[O-])c3)c2=O)cc1` the inhibition was -16.7%. For `O=C1NC(=O)N(Cc2ccco2)C(=O)/C1=C/C=C/c1ccco1`, the inhibition was active: 34.4%. Work on `Cc1ccc(-n2c(/C=C/c3ccc(Br)s3)nc3ccccc3c2=O)cc1` yielded an inhibition of 13.5%. `O=c1c2ccccc2nc(/C=C/c2cccc3ccccc23)n1-c1ccccc1Cl` showed an inhibition of -13.3%. `CCCN1CC[C@@H]2c3cc(O)ccc3CC[C@@H]21` was tested, and the inhibition was active: 73%. With `COc1ccc(OC)c(NC(=O)Cn2cc(C(=O)c3ccccc3F)c3ccccc32)c1` the inhibition was 1.63%. In the case of `CCC1(c2ccccc2)C(=O)N(C)C(=O)N(C)C1=O`, the inhibition is reported as active: 34%. In the case of `O=c1[nH]c2ccccc2n1C1CCN(CCCC(c2ccc(F)cc2)c2ccc(F)cc2)CC1`, the inhibition is reported as active: 86.8%. In the case of `Cc1ccc(-n2c(/C=C/c3ccc(Br)s3)nc3ccccc3c2=O)cc1C`, the inhibition is reported as -5.6%. Work on `Cc1nnc(NC(=O)c2cccn(Cc3ccc(Cl)cc3)c2=O)s1` yielded an inhibition of -16.4%. With `CCN1CCN(Cc2cc(C(C)(C)C)c(O)c(C(C)(C)C)c2)CC1` the inhibition was active: 45.9%. In the case of `C=CCn1c(O)c(C(C)=NCCN2CCOCC2)c(=O)[nH]c1=O`, the inhibition is reported as active: 39.5%. In the case of `CCCCCCn1c(O)c(C=Nc2ccccc2N2CCOCC2)c(=O)[nH]c1=S`, the inhibition is reported as active: 36.8%. With `FC(F)(F)c1ccc2c(c1)N(CCCN1CCN(CCCl)CC1)c1ccccc1S2` the inhibition was active: 75.4%. In the case of `COC(=O)C1=C(c2ccc(-c3ccccc3)c(F)c2)C[C@@H]2CC[C@H]1N2C(=O)NC1Cc2ccccc2C1`, the inhibition is reported as active: 38.4%. `Cc1cc(C)cc(-n2c(/C=C/c3cccc(F)c3)nc3ccccc3c2=O)c1` showed an inhibition of -9.75%. For `COc1ccc(C(CNC(=O)c2ccc3c(c2)CCC3)N(C)C)cc1` (stereo not given), the inhibition was active: 79.5%. `Cc1ccc(O)c(CN2CCN(c3ccccc3)CC2)c1` was tested, and the inhibition was active: 38.4%. In the case of `COc1ccc(C[C@@H]2c3cc(O)c(OC)cc3CCN2C)cc1O`, the inhibition is reported as active: 51.9%. Work on `COc1ccc(NC(=O)CN2C(=O)C(C)N=C(c3ccccc3F)c3cc(Cl)ccc32)c(OC)c1` (stereo not given) yielded an inhibition of 9.75%. For `Cc1ccc(NC(=O)N(Cc2ccc3c(c2)OCO3)C2CCN(Cc3ccccc3)CC2)cc1F`, the inhibition was -1.06%. In the case of `OC(CN1CC=C(c2ccccc2)CC1)c1ccccc1` (stereo not given), the inhibition is reported as active: 74.6%. `O=C(Nc1ccon1)c1cccn(Cc2cccc(Cl)c2)c1=O` gave an inhibition of -13.6%. `O=C(CN1CC=C(c2ccccc2)CC1)NC(=O)NCc1ccco1` was tested, and the inhibition was active: 39.6%. In the case of `Cc1ccc2c(c1)C1CN(C)CCC1N2S(=O)(=O)c1ccccc1` (stereo not given), the inhibition is reported as active: 44.4%. `Cc1cccc(NC(=O)Cn2cc(C(=O)c3ccccc3)c3ccccc32)c1C` was tested, and the inhibition was 2.96%. For `O=c1[nH]c2ccccc2c(=O)n1-c1ccc(Cl)c(Cl)c1`, the inhibition was -1.36%. With `COc1ccccc1N1CCN(Cc2ccccc2Cl)CC1` the inhibition was active: 79.3%. Work on `Cc1oc(-c2ccc(Cl)cc2)nc1CN1C(=O)CN=C(c2ccccc2)c2ccccc21` yielded an inhibition of -19.6%. In the case of `CN1CC[C@]2(c3cccc(O)c3)Cc3nc4ccccc4cc3C[C@H]2C1`, the inhibition is reported as active: 40.5%. `O=C(C[N+]12CCC(CC1)C(OC(=O)c1ccccc1)C2)c1ccc([N+](=O)[O-])cc1` (stereo not given) was tested, and the inhibition was active: 33%. Compound `O=C1CC(c2ccc(Br)cc2)c2c(c3ccccc3oc2=O)O1` (stereo not given) has an inhibition of 3.27%. For `O=S1(=O)N(CCN2CC=C(c3c[nH]c4cc(F)ccc34)CC2)c2cccc3c2N1CCC3`, the inhibition was active: 63.7%. `CCC12CN3CC(CC)(CN(C1)C3c1ccccn1)C2=O` (stereo not given) was tested, and the inhibition was 4.54%. For `O=c1cc(C(F)(F)F)c2cc3c4c(c2o1)CCCN4CCC3`, the inhibition was active: 78.5%. For `CC(=O)N1CC(=O)Nc2ccc(F)cc2C1c1ccccc1` (stereo not given), the inhibition was -11.2%. `Cc1cc(C)cc(-n2c(=O)[nH]c3ccccc3c2=O)c1` showed an inhibition of -3.27%. `O=[N+]([O-])c1cccc(CN2CCN(Cc3ccc(Br)cc3)CC2)c1` was tested, and the inhibition was active: 89.7%. With `COc1cc2occc2c2oc(=O)ccc12` the inhibition was active: 32.6%. For `COc1cccc(CNCCc2c[nH]c3ccccc23)c1OC`, the inhibition was active: 52.2%. `CCCSc1nc2ccccc2c(=O)n1-c1ccccc1OC` showed an inhibition of -8.52%. With `Cc1cc(O)c(CN2CC=C(c3ccccc3)CC2)cc1C(C)C` the inhibition was active: 74.6%.
